Measurements reported in paper PMC4340053, “The DEAH-box Helicase Dhr1 Dissociates U3 from the Pre-rRNA to Promote Formation of the Central Pseudoknot” (PLoS Biology, 2015).
Results are given in words; binding and its absence hold for the method and conditions named. In cells and extracts the contact can be indirect. Some entries that bind do so weakly or less than the wild type. Tags and fused reporters may be left off the sequences shown.

Key:
[1] = biological target: T1, Dhr1_(K420A)-13myc (S. cerevisiae) (UniProt Q04217); assay: co-IP; whole cell extracts of AJY3711 expressing dhr1_(K420A)-13myc, shifted to glucose for 6 h; anti-myc (9e10) antibody 2 h at 4°C, Protein A beads; Western blotting of the precipitate
T1 sequence: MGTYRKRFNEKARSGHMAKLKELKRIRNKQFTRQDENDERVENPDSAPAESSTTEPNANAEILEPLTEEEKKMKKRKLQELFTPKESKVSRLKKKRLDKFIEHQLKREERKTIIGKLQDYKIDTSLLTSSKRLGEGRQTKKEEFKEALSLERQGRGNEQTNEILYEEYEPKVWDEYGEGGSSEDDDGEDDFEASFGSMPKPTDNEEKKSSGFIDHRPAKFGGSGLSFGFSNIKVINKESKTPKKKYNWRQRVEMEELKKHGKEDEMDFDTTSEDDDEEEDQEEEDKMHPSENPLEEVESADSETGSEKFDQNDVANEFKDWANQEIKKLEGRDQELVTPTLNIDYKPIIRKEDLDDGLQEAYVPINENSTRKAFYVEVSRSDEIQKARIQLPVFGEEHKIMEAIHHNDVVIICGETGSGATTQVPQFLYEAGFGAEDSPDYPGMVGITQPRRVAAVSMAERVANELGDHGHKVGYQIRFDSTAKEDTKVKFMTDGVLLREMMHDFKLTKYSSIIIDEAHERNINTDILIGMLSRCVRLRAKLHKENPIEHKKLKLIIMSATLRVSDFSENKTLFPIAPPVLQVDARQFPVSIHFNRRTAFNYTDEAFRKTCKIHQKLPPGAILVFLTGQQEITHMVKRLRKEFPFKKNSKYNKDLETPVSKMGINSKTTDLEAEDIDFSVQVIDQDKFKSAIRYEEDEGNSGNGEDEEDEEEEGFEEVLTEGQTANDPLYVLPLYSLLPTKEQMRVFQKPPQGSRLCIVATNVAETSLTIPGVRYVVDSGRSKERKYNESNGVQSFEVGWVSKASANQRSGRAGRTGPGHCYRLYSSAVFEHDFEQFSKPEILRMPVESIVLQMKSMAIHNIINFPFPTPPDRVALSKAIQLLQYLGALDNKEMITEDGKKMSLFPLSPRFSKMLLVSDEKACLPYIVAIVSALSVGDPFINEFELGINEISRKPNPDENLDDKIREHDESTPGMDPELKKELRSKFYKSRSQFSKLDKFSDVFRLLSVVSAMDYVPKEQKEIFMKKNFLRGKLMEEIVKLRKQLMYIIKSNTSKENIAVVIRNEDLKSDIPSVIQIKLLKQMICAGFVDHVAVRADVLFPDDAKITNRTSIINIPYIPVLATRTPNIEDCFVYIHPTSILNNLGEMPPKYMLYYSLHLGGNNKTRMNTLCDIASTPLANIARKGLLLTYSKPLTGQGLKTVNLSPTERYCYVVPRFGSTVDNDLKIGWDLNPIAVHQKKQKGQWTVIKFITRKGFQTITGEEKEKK

[2] = biological target: T1, Dhr1_(K420A)-13myc (S. cerevisiae); assay: co-sedimentation; whole cell extracts of cycloheximide-treated cells fractionated by sucrose density gradient ultracentrifugation; fractions TCA-precipitated and Western blotted (anti-myc, anti-Mpp10, anti-Imp4)

B1: Imp4 (protein, UniProt P53941 1-290)
chain: MLRRQARERREYLYRKAQELQDSQLQQKRQIIKQALAQGKPLPKELAEDESLQKDFRYDQSLKESEEADDLQVDDEYAATSGIMDPRIIVTTSRDPSTRLSQFAKEIKLLFPNAVRLNRGNYVMPNLVDACKKSGTTDLVVLHEHRGVPTSLTISHFPHGPTAQFSLHNVVMRHDIINAGNQSEVNPHLIFDNFTTALGKRVVCILKHLFNAGPKKDSERVITFANRGDFISVRQHVYVRTREGVEIAEVGPRFEMRLFELRLGTLENKDADVEWQLRRFIRTANKKDYL
- binding [1]: binds
- binding [2]: binds

B2: Mpp10 (protein, UniProt P47083 1-593)
chain: MSELFGVLKSNAGRIILKDPSATSKDVKAYIDSVINTCKNGSITKKAELDEITVDGLDANQVWWQVKLVLDSIDGDLIQGIQELKDVVTPSHNLSDGSTLNSSSGEESELEEAESVFKEKQMLSADVSEIEEQSNDSLSENDEEPSMDDEKTSAEAAREEFAEEKRISSGQDERHSSPDPYGINDKFFDLEKFNRDTLAAEDSNEASEGSEDEDIDYFQDMPSDDEEEEAIYYEDFFDKPTKEPVKKHSDVKDPKEDEELDEEEHDSAMDKVKLDLFADEEDEPNAEGVGEASDKNLSSFEKQQIEIRKQIEQLENEAVAEKKWSLKGEVKAKDRPEDALLTEELEFDRTAKPVPVITSEVTESLEDMIRRRIQDSNFDDLQRRTLLDITRKSQRPQFELSDVKSSKSLAEIYEDDYTRAEDESALSEELQKAHSEISELYANLVYKLDVLSSVHFVPKPASTSLEIRVETPTISMEDAQPLYMSNASSLAPQEIYNVGKAEKDGEIRLKNGVAMSKEELTREDKNRLRRALKRKRSKANLPNVNKRSKRNDVVDTLSKAKNITVINQKGEKKDVSGKTKKSRSGPDSTNIKL
- binding [1]: binds
- binding [2]: binds

B3: Rps2 (uS5) (protein, UniProt P25443 1-254)
chain: MSAPEAQQQKRGGFGGRNRGRPNRRGPRNTEEKGWVPVTKLGRLVKAGKITTIEEIFLHSLPVKEFQIIDTLLPGLQDEVMNIKPVQKQTRAGQRTRFKAVVVVGDSNGHVGLGIKTAKEVAGAIRAGIIIAKLSVIPIRRGYWGTNLGQPHSLATKTTGKCGSVTVRLIPAPRGSGIVASPAVKKLLQLAGVEDVYTQSNGKTRTLENTLKAAFVAIGNTYGFLTPNLWAEQPLPVSPLDIYSDEASAQKKRF
- binding [1]: no binding

B4: Rps3 (uS3) (protein, UniProt P05750 1-240)
chain: MVALISKKRKLVADGVFYAELNEFFTRELAEEGYSGVEVRVTPTKTEVIIRATRTQDVLGENGRRINELTLLVQKRFKYAPGTIVLYAERVQDRGLSAVAQAESMKFKLLNGLAIRRAAYGVVRYVMESGAKGCEVVVSGKLRAARAKAMKFADGFLIHSGQPVNDFIDTATRHVLMRQGVLGIKVKIMRDPAKSRTGPKALPDAVTIIEPKEEEPILAPSVKDYRPAEETEAQAEPVEA
- binding [1]: no binding
